Test results reported in PubChem BioAssay AID504832 (National Center for Advancing Translational Sciences (NCATS), 2011).
Among all 310,000 compounds or so, about 18,000 (5.8%) were called active. Inconclusive means that the source gave no clear call. Such entries were picked first, then a sample of the others. Calls come from the whole dose curve; as a rule, active = well fitted inhibition curve with a large enough effect; inconclusive = small, poorly fitted or top-dose-only effect, or another doubt; inactive = no such curve, though single readings can be large or run the other way. No potency is given beside an inconclusive call; the fits are too rough.

assay: Primary qHTS for delayed death inhibitors of the malarial parasite plastid, 48 hour incubation; conditions: P. falciparum luciferase growth in erythrocytes; series mostly up to 28.7 µM
Outline: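 Cell-based growth assay: transgenic P. falciparum expressing firefly luciferase, cultured in red cells within RPMI 1640 containing 0.5% w/v Albumax, 24 mM bicarbonate and gentamycin. A drop in luciferase activity indicates inhibition.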
Potency is the fitted concentration of half-maximal effect; tags give direction and shape of the fitted curve.

SMILES	Potency
COCCCn1c(=NC(=O)c2ccccc2)c(C#N)cc2c(=O)n3cccc(C)c3nc21	active: 2.94 µM
Cc1cc(Br)cnc1NC(=S)Nc1ccc(F)cc1F	inconclusive [inhibitor, single point]
C=CCOc1nc2sc(C)c(C)c2c(=O)n1-c1ccccc1	inactive
CN(CC(=O)Nc1ccccc1Br)C(=O)CNC(=O)c1ccc(Oc2ccccc2)cc1	inconclusive [inhibitor, full curve, poor fit]
CCCOc1ccccc1C(=O)N(Cc1cccc(Br)c1)C1CCS(=O)(=O)C1 (configuration not stated)	inconclusive [inhibitor, single point]
COc1ccc(-c2nc(CS(=O)(=O)CC(=O)NCc3ccc(F)cc3)c(C)o2)cc1	inactive
CCOc1ccc(C(=O)CCCC(=O)c2ccc(OCC)cc2)cc1	inactive
CCOc1ccccc1NC(=O)Cc1c(F)cccc1Cl	inconclusive [inhibitor, partial curve]
Cc1sc2ncnc(SCC(=O)N3CCCC3)c2c1C	inactive
COc1ccc2cc(/C=C/C(=O)c3ccco3)c(Cl)nc2c1	inconclusive [inhibitor, single point]
COC(=O)C1=C(c2cccc(OCc3ccccc3)c2)C[C@@H]2CC[C@H]1N2C(=O)NNCc1ccccc1	active: 8.28 µM
CCOC(=O)C1CCCN(Cc2cc(=O)oc3cc(C)c(C(C)C)cc23)C1 (configuration not stated)	inactive
COc1ccc(C)cc1N(C(=O)c1ccccc1)c1nc2ccccc2s1	active: 11.7 µM
Cn1nnnc1Sc1ncnc2scc(-c3ccccc3)c12	active: 11.7 µM
Cc1c(C(=O)Nc2ccc(Oc3ccccc3)cc2)sc2nc3n(c(=O)c12)CCC3	active: 11.7 µM
CSc1ccc(C(=O)C2CCCN(S(=O)(=O)N(C)C)C2)cc1 (configuration not stated)	inactive
CCOC(=O)N1CCC2(CC1)C(C#N)=C(N)Oc1c2c(C)nn1-c1cccc(Cl)c1	active: 9.28 µM
CCOC(=O)c1c(NC(=O)C[n+]2ccccc2)sc2c1CCCC2	inconclusive [inhibitor, partial curve]
O=C(NCc1ccc(Cl)cc1)C1CCC(CNS(=O)(=O)c2ccccc2)CC1 (configuration not stated)	inactive
CCOC(=O)CC1(NC(=O)C2CCC(=O)N(CCc3ccc(OC)cc3)C2)CCCCC1 (configuration not stated)	inconclusive [inhibitor, single point]
O=C(COc1ccccc1)Nc1cccc(-c2nc3ccccc3[nH]2)c1	inactive
O=C(c1ccco1)N1CCN(Cc2cccc3ccccc23)CC1	inconclusive [inhibitor, single point]
